Experimental data reported in the supplement of paper PMC12217912.
The list shows a part of the results. Sequences were assembled here from the parent chain. Inactive controls read about 0.05.

B1: TEV protease; numbered along this chain (parent)
chain: MGESLFKGPRDYNPISSSICHLTNESDGHTTSLYGIGFGPFIITNKHLFRRNNGTLVVQSLHGVFKVKDTTTLQQHLVDGRDMIIIRMPKDFPPFPQKLKFREPQREERICLVTTNFQTKSMSSMVSDTSCTFPSGDGIFWKHWIQTKDGQCGSPLVSTRDGFIVGIHSASNFTNTNNYFTSVPKNFMELLTNQEAQQWVSGWRLNADSVLWGGHKVFMVKPEEPFQPVKEATQL

Variants of: B1
Assay: raw area under fraction-flipped curve 0-4 h after induction (AUC4h, not background-subtracted), DNA-recorder readout of cleavage of the substrate (dimensionless); higher = more cleavage of the substrate by the protease variant
Conditions: temperature: 34 °C; time window: 0-4 h after rhamnose induction
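Also: Bxb1 expression induced with 0.2% (w/v) L-rhamnose at OD600 near 0.5, cultures sampled hourly, flipped fraction per protease–substrate barcode pair counted by paired-end Illumina sequencing.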

Variant	area with substrate ENQYFQS	area with substrate ENVYFQS	area with substrate ENKYFQS	area with substrate ENMYFQS	area with substrate ENNYFQS	area with substrate ENSYFQS	area with substrate ENHYFQS	area with substrate ENRYFQS	area with substrate ENTYFQS	area with substrate ENYYFQS
MGESLFKGPRDYNPISSSICHLTNESDGHTTSLYGIGFGPFIITNKHLFRRNNGTLVVQSLHGVFKVKDTTTLQQHLVDGRDMIIIRMPKDFPPFPQKLKFREPQREERICLVTTNFQTKSMSSMVSGTSCTFPSGDGIFWKHWIQTKDGQCGSPLVSTRDGFIVGIHSASNFTNTNNYFTSVPKNFMELLTNQEAQQWVSGWRLNADSVLWGGHKVFMVKPEEPFQPVKEATQL [D128G]	0.0522	–	–	–	–	–	–	–	–	–
MGESLFKGPRDYNPISSSICHLTNESDGHTTSLYGIGFGPFIITNKHLFRRNNGTLVVQSLHGVFKVKDTTTLQQHLVDGRDMIIIRMPKDFPPFPQKLKFREPQREERICLVTTNFQTKSMSSMVSDTSCTFPSGDGIFWKHWIQTKDGQCGSPLVSTRDGFIVGIHSASNFTNTNNYFTSVPKNFMELLTNQEAQQWKSGWRLNADSVLWGGHKVFMVKPEEPFQPVKEATQL [V200K]	–	0.064	–	–	–	–	–	–	–	–
MGESLFKIPRDYNPISSSICHLTNESDGHTTSLYGIGFGPFIITNKHLFRRNNGTLVVQSLHGVFKVKDTTTLQQHLVDGRDMIIIRMPKDFPPFPQKLKFREPQREERICLVTTNFQTKSMSSMVSDTSCTFPSGDGIFWKHWIQTKDGQCGSPLVSTRDGFIVGIHSASNFTNTNNYFTSVPKNFMELLTNQEAQQWVSGWRLNADSVLWGGHKVFMVKPEEPFQPVKEATQL [G8I]	0.0608	–	0.0758	0.0437	0.0451	0.0621	–	–	–	–
MGESLFKGPRDYNPISSSICHLTNESDGHTTSLYGIGFGPFIITNKHLFRRNNGTLVVQSLHGVFKVKDTTTLQQHLVDGRDMIIIRMPKDFPPFPQKLKFREPQREERICLVTTNFQTKSMSSMVSDTSCTFPSGDGIFWKHWIQTKDGQCGSPLVSTRDGFIVGIHSASNFTNTNNYFTSVKKNFMELLTNQEAQQWVSGWRLNADSVLWGGHKVFMVKPEEPFQPVKEATQL [P184K]	–	0.0651	0.0619	0.0551	0.0559	0.0519	0.0625	0.0626	0.0619	0.0574
MGESLFKGPRDYNPISSSICHLTNESDGHTTSLYGIGFGPFIITNKHLFRRNNGTLVVQSLHGVFKVKDTTTLQQHLVDGRDMIIIRMPKDFPPFPQKLKFREPQREERICLVTTNFQTKSMSSMVSDTSCTFPSGDGIFWKHWIQTKDGQCGSPLVSTRDGFIVGIHSASNFTNTNNYFTSVPKNFMELLTNQEAQQWVSGWRLNADSVLWGGHMVFMVKPEEPFQPVKEATQL [K216M]	–	–	0.0617	0.0575	–	–	0.0586	–	0.0712	0.0601
MGESLFKGPRDYNPISSSICHLTNESDGHTTSLYKIGFGPFIITNKHLFRRNNGTLVVQSLHGVFKVKDTTTLQQHLVDGRDMIIIRMPKDFPPFPQKLKFREPQREERICLVTTNFQTKSMSSMVSDTSCTFPSGDGIFWKHWIQTKDGQCGSPLVSTRDGFIVGIHSASNFTNTNNYFTSVPKNFMELLTNQEAQQWVSGWRLNADSVLWGGHKVFMVKPEEPFQPVKEATQL [G35K]	0.0534	–	–	–	–	–	–	0.0404	–	–

Same assay, conditions: temperature: 34 °C; time window: 0-4 h after rhamnose induction

Variant	area with substrate ENPYFQS	area with substrate ENWYFQS
MGESLFKGPRDYNPISSSICHLTNESDGHTTSLYGIGFGPFIITNKHLFRRNNGTLVVQSLHGVFKVKDTTTLQQHLVDGRDMIIIRMPKDFPPFPQKLKFREPQREERICLVTTNFQTKSMSSMVSDTSCTFPSGDGIFWKHWIQTKDGQCGSPLVSTRDGFIVGIHSASNFTNTNNYFTSVPKNFMELLTNQEAQQWVSGWRLNADSVLWGGHMVFMVKPEEPFQPVKEATQL [K216M]	0.075	–
MGESLFKGPRDYNPISSSICHLTNESDGHTTSLYKIGFGPFIITNKHLFRRNNGTLVVQSLHGVFKVKDTTTLQQHLVDGRDMIIIRMPKDFPPFPQKLKFREPQREERICLVTTNFQTKSMSSMVSDTSCTFPSGDGIFWKHWIQTKDGQCGSPLVSTRDGFIVGIHSASNFTNTNNYFTSVPKNFMELLTNQEAQQWVSGWRLNADSVLWGGHKVFMVKPEEPFQPVKEATQL [G35K]	0.0487	0.0227
